From publication PMC5893904
These are yes or no findings as the source states them, for the method shown. Some entries that bind do so weakly or less than the wild type. Sequences can lack the tags named with a protein.

Sequences of proteins named here, by UniProt entry; tags and fusion partners are left off.
UniProt O04090: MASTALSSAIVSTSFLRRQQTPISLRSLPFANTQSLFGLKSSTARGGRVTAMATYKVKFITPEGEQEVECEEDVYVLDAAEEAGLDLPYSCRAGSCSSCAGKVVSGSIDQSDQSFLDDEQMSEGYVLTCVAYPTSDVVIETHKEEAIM
UniProt P16972: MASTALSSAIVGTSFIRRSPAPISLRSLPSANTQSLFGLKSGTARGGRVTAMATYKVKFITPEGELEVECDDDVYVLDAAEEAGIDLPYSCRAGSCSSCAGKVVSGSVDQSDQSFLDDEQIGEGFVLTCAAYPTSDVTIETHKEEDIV
UniProt Q9S831: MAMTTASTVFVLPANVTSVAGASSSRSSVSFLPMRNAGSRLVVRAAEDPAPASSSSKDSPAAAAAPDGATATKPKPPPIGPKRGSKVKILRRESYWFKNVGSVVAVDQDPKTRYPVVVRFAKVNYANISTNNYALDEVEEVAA
UniProt Q9S7H1: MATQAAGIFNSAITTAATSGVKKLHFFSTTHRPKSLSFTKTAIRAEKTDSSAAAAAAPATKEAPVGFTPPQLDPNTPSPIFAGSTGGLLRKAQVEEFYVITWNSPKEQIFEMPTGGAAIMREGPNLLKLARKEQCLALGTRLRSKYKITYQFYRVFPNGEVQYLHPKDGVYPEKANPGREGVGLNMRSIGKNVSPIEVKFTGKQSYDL
UniProt Q9S714: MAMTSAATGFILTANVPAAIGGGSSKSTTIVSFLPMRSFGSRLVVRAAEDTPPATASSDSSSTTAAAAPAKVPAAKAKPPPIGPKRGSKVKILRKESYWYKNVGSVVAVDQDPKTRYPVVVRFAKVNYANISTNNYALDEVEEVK

T1: AtFdC1 (ferredoxin C 1), yeast two-hybrid bait fused with the binding domain (Arabidopsis thaliana) (UniProt O23344)
T1 sequence: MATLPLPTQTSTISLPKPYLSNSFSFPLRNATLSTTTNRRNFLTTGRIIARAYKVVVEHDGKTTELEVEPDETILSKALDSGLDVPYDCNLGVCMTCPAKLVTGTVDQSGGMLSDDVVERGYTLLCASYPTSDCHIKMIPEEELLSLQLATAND

T2: FdC1NC, FdC1 with truncated C-terminus (1-145a.a.), yeast two-hybrid bait (Arabidopsis thaliana) (UniProt O23344)
T2 sequence: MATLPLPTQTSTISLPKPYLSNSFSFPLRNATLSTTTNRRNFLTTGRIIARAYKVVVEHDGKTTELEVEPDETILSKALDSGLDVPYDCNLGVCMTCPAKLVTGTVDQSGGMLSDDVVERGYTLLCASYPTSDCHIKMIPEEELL


Legend:
Experiment in all cases: two-hybrid; Clontech Matchmaker GAL4 system, gold yeast strain; Fds, FdC1 and FdC1NC fused with the binding domain (BD, bait), candidate proteins fused with the active-domain (AD, prey); growth on DDO, TDO and QDO dropout media, 28°C
[1] = biological target: AtFd1 (leaf-type ferredoxin 1), yeast two-hybrid bait fused with the binding domain (Arabidopsis thaliana) (UniProt O04090)
[2] = biological target: AtFd2 (leaf-type ferredoxin 2), yeast two-hybrid bait fused with the binding domain (Arabidopsis thaliana) (UniProt P16972)
[3] = biological target: T1, AtFdC1 (ferredoxin C 1), yeast two-hybrid bait fused with the binding domain (Arabidopsis thaliana)
[4] = biological target: T2, FdC1NC, FdC1 with truncated C-terminus (1-145a.a.), yeast two-hybrid bait (Arabidopsis thaliana)

Molecule	binding [1]	binding [2]	binding [3]	binding [4]
PGR5, yeast two-hybrid prey fused with the active-domain (protein, UniProt Q9SL05 1-133) MAAASISAIGCNQTLIGTSFYGGWGSSISGEDYQTMLSKTVAPPQQARVSRKAIRAVPMMKNVNEGKGLFAPLVVVTRNLVGKKRFNQLRGKAIALHSQVITEFCKSIGADAKQRQGLIRLAKKNGERLGFLA			binds	no binding
RootFNR1 (root-type ferredoxin-NADP+ oxidoreductase 1), yeast two-hybrid prey fused with the active-domain (enzyme, UniProt Q9M0V6 1-378) MALSTTPSQMSVALPTRIDGSSRSMIKVQSISFTDKSWGPPLLRLDSKSRSLGVKKRSTICMSLQQSSKSKVLVTPLELEDPKETPLNLFRPKEPYTATIVSVERIVGPQAPGETCHIVIDHDGNVPYWEGQSYGVIPPGENPKKPGAPHNVRLYSIASTRYGDSFDGKTASLCVRRAIYYDPETGKEDPSKAGVCSNFLCNAKPGDKVKITGPSGKVMLLPEDDPKATHIMIATGTGVAPYRGYLRRMFMENVPNFKFDGLAWLFLGVANSDSLLYDEEFAGYRKDYPENFRYDKALSREEKNKKGGKMYVQDKIEEYSDEIFKLLDNGAHIYFCGLKGMMPGIQDTLKRVAEERGESWEQKLTQLRKNKQWHVEVY			no binding	
SiR (sulfite reductase), yeast two-hybrid prey fused with the active-domain (enzyme, UniProt Q9LZ66 1-642) MSSTFRAPAGAATVFTADQKIRLGRLDALRSSHSVFLGRYGRGGVPVPPSASSSSSSPIQAVSTPAKPETATKRSKVEIIKEKSNFIRYPLNEELLTEAPNVNESAVQLIKFHGSYQQYNREERGGRSYSFMLRTKNPSGKVPNQLYLTMDDLADEFGIGTLRLTTRQTFQLHGVLKQNLKTVMSSIIKNMGSTLGACGDLNRNVLAPAAPYVKKDYLFAQETADNIAALLSPQSGFYYDMWVDGEQFMTAEPPEVVKARNDNSHGTNFVDSPEPIYGTQFLPRKFKVAVTVPTDNSVDLLTNDIGVVVVSDENGEPQGFNIYVGGGMGRTHRMESTFARLAEPIGYVPKEDILYAVKAIVVTQREHGRRDDRKYSRMKYLISSWGIEKFRDVVEQYYGKKFEPSRELPEWEFKSYLGWHEQGDGAWFCGLHVDSGRVGGIMKKTLREVIEKYKIDVRITPNQNIVLCDIKTEWKRPITTVLAQAGLLQPEFVDPLNQTAMACPAFPLCPLAITEAERGIPSILKRVRAMFEKVGLDYDESVVIRVTGCPNGCARPYMAELGLVGDGPNSYQVWLGGTPNLTQIARSFMDKVKVHDLEKVCEPLFYHWKLERQTKESFGEYTTRMGFEKLKELIDTYKGVSQ			binds	binds
PGRL1B (PGR5-like protein B), yeast two-hybrid prey fused with the active-domain (protein, UniProt Q8GYC7 1-313) MAFTLTIPRFSAISRKPITCSSSRTQCPAPFTHGRSISLRRRLTLLPLKASTDQSGQVGGEEVDSKILPYCSINKNEKRTIGEMEQEFLQAMQSFYYEGKAIMSNEEFDNLKEELMWEGSSVVMLSSDEQRFLEASMAYVSGNPILSDEEYDKLKMKLKMDGSEIVCEGPRCSLRSKKVYSDLAIDYFKMFLLNVPATVVALGLFFFLDDITGFEITYLLELPEPFSFIFTWFAAVPAIVYLALSLTKLILKDFLILKGPCPNCGTENVSFFGTILSIPNDSNTNNVKCSGCGTEMVYDSGSRLITLPEGGKA			binds	no binding
RootFNR2 (root-type ferredoxin-NADP+ oxidoreductase 2), yeast two-hybrid prey fused with the active-domain (enzyme, UniProt Q9S9P8 1-382) MSHSAVSQAGAVSVSIENQRSLRRSVFKQNNSISFNSKSWSSSLALNQKTTSIRDGKRYPSTTICMSVQQTSSSKVTVSPIELEDPKDPPLNLYKPKESYTAKIVSVERVVGPKAPGETCHIVIDHDGNLPYWEGQSYGVIPPGENPKKPGAPHNVRLYSIASTRYGDFFDGKTASLCVRRAVYYDPETGKEDPSKNGVCSNFLCDSKPGDKIQITGPSGKVMLLPESDPNATHIMIATGTGVAPYRGYLRRMFMENVPNKTFSGLAWLFLGVANTDSLLYDEEFTKYLKDHPDNFRFDKALSREEKNKKGGKMYVQDKIEEYSDEIFKLLDNGAHIYFCGLKGMMPGIQDTLKRVAEERGESWDLKLSQLRKNKQWHVEVY			no binding	
PsaD2 (subunit D2 of photosystem I), yeast two-hybrid prey fused with the active-domain (protein, UniProt Q9SA56 1-204) MATQAAGIFSPAITTTTSAVKKLHLFSSSHRPKSLSFTKTAIRAEKTESSSAAPAVKEAPVGFTPPQLDPNTPSPIFAGSTGGLLRKAQVEEFYVITWNSPKEQIFEMPTGGAAIMREGPNLLKLARKEQCLALGTRLRSKYKITYQFYRVFPNGEVQYLHPKDGVYPEKANPGREGVGLNMRSIGKNVSPIEVKFTGKQSYDL	binds	binds	binds	binds

Second part, the molecule after the results:

binding [1]	binding [2]	binding [3]	binding [4]	Molecule
binds	binds	binds	binds	PsaE1 (subunit E1 of photosystem I), yeast two-hybrid prey fused with the active-domain (from UniProt Q9S831 1-143)
binds	binds	binds	binds	PsaD1 (subunit D1 of photosystem I), yeast two-hybrid prey fused with the active-domain (from UniProt Q9S7H1 1-208)
binds	binds	binds	binds	PsaE2 (subunit E2 of photosystem I), yeast two-hybrid prey fused with the active-domain (from UniProt Q9S714 1-145)
		no binding		LeafFNR1 (leaf-type ferredoxin-NADP+ oxidoreductase 1), yeast two-hybrid prey fused with the active-domain (enzyme, UniProt Q9FKW6 1-360) MAAAISAAVSLPSSKSSSLLTKISSVSPQRIFLKKSTVCYRRVVSVKAQVTTDTTEAPPVKVVKESKKQEEGIVVNKFKPKNPYTGRCLLNTKITGDDAPGETWHIVFTTEGEVPYREGQSIGVIPEGIDKNGKPHKLRLYSIASSAIGDFGDSKTVSLCVKRLVYTNDGGEIVKGVCSNFLCDLKPGDEAKITGPVGKEMLMPKDPNATIIMLGTGTGIAPFRSFLWKMFFEEHEDYKFNGLAWLFLGVPTSSSLLYKEEFEKMKEKNPDNFRLDFAVSREQTNEKGEKMYIQTRMAEYAEELWELLKKDNTFVYMCGLKGMEKGIDDIMVSLAAKDGIDWLEYKKQLKRSEQWNVEVY
		binds	binds	FTRB (ferredoxin-thioredoxin reductase catalytic chain B), yeast two-hybrid prey fused with the active-domain (protein, UniProt Q9SJ89 1-146) MNLQAVSCSFGFLSSPLGVTPRTSFRRFVIRAKTEPSEKSVEIMRKFSEQYARRSGTYFCVDKGVTSVVIKGLAEHKDSYGAPLCPCRHYDDKAAEVGQGFWNCPCVPMRERKECHCMLFLTPDNDFAGKDQTITSDEIKETTANM
		binds	binds	NiR (nitrite reductase), yeast two-hybrid prey fused with the active-domain (enzyme, UniProt Q39161 1-586) MTSFSLTFTSPLLPSSSTKPKRSVLVAAAQTTAPAESTASVDADRLEPRVELKDGFFILKEKFRKGINPQEKVKIEREPMKLFMENGIEELAKKSMEELDSEKSSKDDIDVRLKWLGLFHRRKHQYGKFMMRLKLPNGVTTSAQTRYLASVIRKYGEDGCADVTTRQNWQIRGVVLPDVPEILKGLASVGLTSLQSGMDNVRNPVGNPIAGIDPEEIVDTRPYTNLLSQFITANSQGNPDFTNLPRKWNVCVVGTHDLYEHPHINDLAYMPANKDGRFGFNLLVGGFFSPKRCEEAIPLDAWVPADDVLPLCKAVLEAYRDLGTRGNRQKTRMMWLIDELGVEGFRTEVEKRMPNGKLERGSSEDLVNKQWERRDYFGVNPQKQEGLSFVGLHVPVGRLQADDMDELARLADTYGSGELRLTVEQNIIIPNVETSKTEALLQEPFLKNRFSPEPSILMKGLVACTGSQFCGQAIIETKLRALKVTEEVERLVSVPRPIRMHWTGCPNTCGQVQVADIGFMGCLTRGEEGKPVEGADVYVGGRIGSDSHIGEIYKKGVRVTELVPLVAEILIKEFGAVPREREENED
		binds	no binding	NdhS (NADH dehydrogenase-like complex S), yeast two-hybrid prey fused with the active-domain (protein, UniProt Q9T0A4 1-250) MATSSITIPTIRTPIHRSKFLGQTHQFSTVNRSVFPPPKQQSKLYQVKAMGKFNLWEVMGGRGLCNGEKGIEKELQRNIEDEQETSKAENNETERESDDSNLSFKVPEDGFEKEMMGLTGGFPGGEKGLKTFIEKNPPPPPPPPPAKQGSDASAVATDKKPKAPKLPLLMPGMIAIVKNQNSPYHMYCGIVQRITDGKAGVLFEGGNWDRLITFRLEELERREKGPPGKNPKSCILEPLIEQMQKEEAAP
		no binding		LeafFNR2 (leaf-type ferredoxin-NADP+ oxidoreductase 2), yeast two-hybrid prey fused with the active-domain (enzyme, UniProt Q8W493 1-369) MATTMNAAVSLTSSNSSSFPATSCAIAPERIRFTKGAFYYKSNNVVTGKRVFSIKAQITTETDTPTPAKKVEKVSKKNEEGVIVNRYRPKEPYTGKCLLNTKITADDAPGETWHMVFSHQGEIPYREGQSVGVIADGIDKNGKPHKVRLYSIASSALGDLGNSETVSLCVKRLVYTNDQGETVKGVCSNFLCDLAPGSDVKLTGPVGKEMLMPKDPNATVIMLATGTGIAPFRSFLWKMFFEKHDDYKFNGLAWLFLGVPTTSSLLYQEEFDKMKAKAPENFRVDYAISREQANDKGEKMYIQTRMAQYAAELWELLKKDNTFVYMCGLKGMEKGIDDIMVSLAANDGIDWFDYKKQLKKAEQWNVEVY
		binds	binds	FTRA2 (ferredoxin-thioredoxin reductase A2), yeast two-hybrid prey fused with the active-domain (protein, UniProt Q8LBP6 1-184) MTNSYALSPAIIAAVRPPASQDYLVAASLSGRKSINSSSSSIFVPISLSTSYGRSKCAFSISRKNPKSTIRCDIAVKSAASVDADADLSSSTSLETEEDEKAKEKIGARVRVTVPLKVYHVVRVPEVELMGMEGFIKDYVVLWKGKKISANLPFKVQFVKEIEGRGPVKFFTHLKEDEFELIDP
